Data published in publication PMC4336329 (PLoS ONE, 2015).
Screen size: about 310,000 compounds; about 14,000 (4.5%) showed an effect of 50% or more. The effect is printed as a negative number. The list shows a part of the results.

target: human ether-à-go-go-related gene (hERG) potassium channel (human, UniProt Q12809); assay: primary screen, population patch clamp on CHO cells stably expressing hERG
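Note: peak tail current of the secondary pulse compared with the same well before compound.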

Sequence of human ether-à-go-go-related gene (hERG) potassium channel (Q12809 whole entry, looked up): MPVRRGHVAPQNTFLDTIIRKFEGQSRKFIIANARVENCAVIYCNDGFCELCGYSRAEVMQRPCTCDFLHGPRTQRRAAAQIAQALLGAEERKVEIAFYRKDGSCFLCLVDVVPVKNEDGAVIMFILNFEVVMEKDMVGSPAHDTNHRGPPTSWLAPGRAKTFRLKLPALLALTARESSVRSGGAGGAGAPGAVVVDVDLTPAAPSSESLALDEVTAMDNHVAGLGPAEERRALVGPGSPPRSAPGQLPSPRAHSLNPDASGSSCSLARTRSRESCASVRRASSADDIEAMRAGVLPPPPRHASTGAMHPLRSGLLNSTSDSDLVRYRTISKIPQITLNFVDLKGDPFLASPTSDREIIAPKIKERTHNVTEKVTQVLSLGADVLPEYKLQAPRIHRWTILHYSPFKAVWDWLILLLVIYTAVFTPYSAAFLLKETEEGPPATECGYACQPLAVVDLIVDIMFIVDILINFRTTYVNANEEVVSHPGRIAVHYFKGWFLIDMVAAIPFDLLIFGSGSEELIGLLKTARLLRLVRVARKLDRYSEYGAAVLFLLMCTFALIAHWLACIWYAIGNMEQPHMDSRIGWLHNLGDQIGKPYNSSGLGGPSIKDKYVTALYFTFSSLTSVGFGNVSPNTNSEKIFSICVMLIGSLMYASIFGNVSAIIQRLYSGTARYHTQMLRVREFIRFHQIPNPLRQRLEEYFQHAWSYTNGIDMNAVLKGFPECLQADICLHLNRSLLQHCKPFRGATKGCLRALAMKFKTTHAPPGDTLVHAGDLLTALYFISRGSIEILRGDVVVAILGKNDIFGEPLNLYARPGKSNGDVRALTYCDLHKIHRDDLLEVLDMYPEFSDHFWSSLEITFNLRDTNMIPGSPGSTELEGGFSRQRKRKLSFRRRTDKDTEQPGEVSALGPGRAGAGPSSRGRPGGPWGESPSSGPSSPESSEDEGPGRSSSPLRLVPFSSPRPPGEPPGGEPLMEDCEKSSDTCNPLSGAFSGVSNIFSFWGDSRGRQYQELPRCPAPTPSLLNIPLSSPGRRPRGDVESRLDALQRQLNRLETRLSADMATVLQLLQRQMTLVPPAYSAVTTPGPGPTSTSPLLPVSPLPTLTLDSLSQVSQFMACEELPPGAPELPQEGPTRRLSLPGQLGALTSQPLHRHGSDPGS

SMILES	hERG current change (%, negative = inhibition) at 10uM [%]
Cc1cc(C)c(C)c(S(=O)(=O)N2CCSCC2)c1C	14.5
O=C(Nc1cccc(F)c1)c1ccc(S(=O)(=O)N2CCCCC2)cc1	11.9
O=C(C1CCCN(S(=O)(=O)Cc2ccccc2)C1)N1CCCCC1 (centres unmarked)	-5.95
O=C(NNC(=O)C1CCN(Cc2ccccc2)CC1)c1cccc(Cl)c1	-14
Cc1cc(S(=O)(=O)N2CCOCC2)ccc1OCC(=O)Nc1cccc(C(F)(F)F)c1	19.8
COCCNC(=O)C1Cc2c(ccc3ccccc23)O1 (centres unmarked)	6.99
CCOC(=O)C(NCCc1ccccc1)(NC(=O)CC)C(F)(F)F (centres unmarked)	-18
CCCC(=O)N(CCN1CCOCC1)c1nc2cc(C)c(C)cc2s1.Cl	15
Cc1ccc(NC(=O)c2ccncc2)cc1S(=O)(=O)N(C)C	-1.29
CCOC(=O)c1sc(NCc2ccco2)c(-c2nc3ccccc3s2)c1N	7.38
CC1CCN(C(=O)Cn2nnc(-c3ccc([N+](=O)[O-])cc3)n2)CC1	-39.1
Cc1nc2ccc(NC(=O)NCCCO)cc2s1	-0.139
O=C(CCn1nnnc1CN1CCOCC1)N1CCC(c2cccc(Cl)c2)C1 (centres unmarked)	-7.7
Cc1cc(C)c(C(=O)N2CCC3(CC2)OCCO3)c(C)c1	19.6
CCN(CC)CC.COc1cccc(-n2c(=S)sc3c(=O)n(-c4ccccc4OC)c(=S)[nH]c32)c1	24.7
COC(=O)CN1C(=O)COc2ccc(S(=O)(=O)NCc3ccc(Cl)cc3)cc21	-30.4
C/C=C/c1ccc(OCC(=O)Nc2ccc(C(N)=O)cc2)c(OC)c1	7.23
COc1ccc(Nc2nc(CC(C)=O)ns2)cc1OC	3.86
N#C/C(=C/c1ccc(N2CCCC2)c([N+](=O)[O-])c1)c1nc2ccccc2[nH]1	-3.43
NC(=O)c1cc(S(=O)(=O)NCc2cccs2)cs1	9.44
N#CCCN1CCC(NC(=O)OCc2ccccc2)CCC1=O (centres unmarked)	-24.9
CSCCC(NC(=O)c1ccccc1Cl)C(=O)NC1CCN(Cc2ccccc2)CC1 (centres unmarked)	-50.1
CCCOc1ccc(N2C(=O)CC(NCCCN3CCC(C(N)=O)CC3)C2=O)cc1 (centres unmarked)	-12.1

SMILES	hERG current change (%, negative = inhibition) at 10uM [%]
O=C(COc1ccc(S(=O)(=O)NC2CCCCC2)cc1)NCC1CCCO1 (centres unmarked)	7.21
Cc1c(O)cc2n(c1=O)-c1ccc(Cl)cc1C2(C)C	10.2
CCc1ccc2[nH]c(=O)c(C(c3nnnn3Cc3ccco3)N3CCC(C)CC3)cc2c1 (centres unmarked)	-4.03
CCN(CC)S(=O)(=O)c1ccc(N2CC(C(=O)N3CCOCC3)CC2=O)cc1 (centres unmarked)	-7.55
Cc1cccc(NC(=O)C(=O)NCC2CCCN2S(=O)(=O)c2cccs2)c1C (centres unmarked)	-21.7
O=C(CSc1ccc(-c2cccnc2)nn1)Nc1ccc(F)cc1	-40.3
CC1CCCC(NCC(O)COC(c2ccc(F)cc2)c2ccc(F)cc2)C1C (centres unmarked)	-71.6
Cc1ccc(S(=O)(=O)NCCCCCC(=O)Nc2cccc(C)c2)cc1	-39.2
O=C(Cn1cnc2c(nnn2-c2ccccc2)c1=O)NCc1ccco1	-24.1
CCCC(=O)NC(c1ccc(Cl)cc1Cl)c1ccc2cccnc2c1O (centres unmarked)	0.094
COc1ccccc1C1(O)CCN(CC(=O)Nc2c(C)nn(C)c2C)CC1	11.3
Cc1cc(C(=O)Cn2nnc3ccccc3c2=O)c(C)n1Cc1cccs1	-12.4
COc1ccc(C(=O)N2CCC(c3ccccc3)CC2)c(OC)c1OC	-9.01
COc1ccc(N=Cc2nc(-c3ccccc3)oc2OC(=O)c2ccccc2)cc1	12.3
Cc1ccc(/C=C/C(=O)Nc2ccc(S(=O)(=O)Nc3cc(C)nc(C)n3)cc2)cc1	21.2
Cc1cc(C)c(OCC(=O)Nc2nnn(C)n2)c(Br)c1	6.77
COc1ccc(S(=O)(=O)N2CCC(C(=O)NC3(C)CCS(=O)(=O)C3)CC2)cc1OC (centres unmarked)	7.87
Cn1cnc(S(=O)(=O)NC2CCN(Cc3c(F)cccc3Cl)CC2)c1	-18.6
Cc1cc(C)c2c(NC(=S)NC(=O)c3ccccc3)nn(C)c2n1	13.6
COc1ccc(CNC(=O)COc2ccc([N+](=O)[O-])cc2)cc1	-64.5
O=C1CC(c2ccco2)CC(O)=C1C=NCC1CCNCC1 (centres unmarked)	-3.84
CC(C)(c1ccc(O)cc1)c1ccc(O)cc1	21.4
O=C(N/C=C/n1cnc2cc(C(F)(F)F)ccc21)c1ccccc1F	-11.7

SMILES	hERG current change (%, negative = inhibition) at 10uM [%]
O=C(CSc1nnnn1-c1ccccc1)N1CCc2ccccc21	7.32
COc1ccc(NC(=O)CN2CCC(NC(=O)c3ccc(OC)cc3)CC2)cc1	-51.1
c1ccc(Oc2cc(-n3cncn3)ncn2)cc1	7.95
CCOC(=O)C1=C(C)N=C2SCCC(=O)N2C1c1ccc(OC)cc1 (centres unmarked)	25.4
COc1cccc(C(C)NC(=O)c2c(F)cccc2Cl)c1 (centres unmarked)	-4.69
CCOc1ccc(N(CC(=O)NCc2ccco2)S(C)(=O)=O)cc1	16
C=CCN1C=C/C(=C\C=C(C#N)C#N)c2ccccc21	-19.9
Br.CCSC(=Nc1ccccc1)N1CCOCC1	6.45
COc1cc(C(C)=O)ccc1OCC(=O)c1cc(C)n(C2CC2)c1C	-0.852
Cc1ccc2c(c1)N(CC(=O)NCc1cccs1)C(=O)CO2	5.4
CCOC(=O)N1CCN(C(=O)C2CCN(C(=O)c3ccc([N+](=O)[O-])cc3)CC2)CC1	-72
CC(Oc1ccc([N+](=O)[O-])cc1Cl)C(=O)Nc1ccc(C(N)=O)cc1 (centres unmarked)	7.04
O=C(O)c1cc(O)ccc1NC(=O)C1CCCO1 (centres unmarked)	-0.924
CN(C)c1ccc(/C=N\NC(=O)c2csnn2)cc1	12.9
N#Cc1ccsc1NC(=O)CSc1ncn[nH]1	-0.2
CNC(=O)c1ccc(-n2cccn2)nc1	3.69
C/C(Cc1ccccc1)=N\NC(=O)CNC(=O)c1ccc2c(c1)OCCO2	8.19
O=C(CN1CCCc2ccccc21)NC(=O)NC1CCCCC1	-17.7
COc1ccccc1CNC(=O)CSc1ccc(-c2cccc([N+](=O)[O-])c2)nn1	-28.9
CCOC(=O)COc1cccc2c(=O)n(CC(=O)NCc3ccc(F)cc3)ccc12	4.04
COc1ccc(S(=O)(=O)N2CCCCC2C(=O)O)cc1OC (centres unmarked)	27.7
CC1(C)CC(=O)C(N=Nc2cc(S(=O)(=O)N3CCOCC3)ccc2Cl)=C(O)C1	21.9
CCOC(=O)CC1NC(=O)c2ccccc21 (centres unmarked)	2.68

SMILES	hERG current change (%, negative = inhibition) at 10uM [%]
S=c1[nH]nc(-c2ccc(Cl)cc2Cl)n1-c1ccc2c(c1)OCCO2	6.46
O=C(CCSc1ccc(Cl)cc1)NCc1ccccn1	-10.4
O=C(Nc1ccccc1C(=O)N1CCCC1)c1ccc(Cl)cc1Cl	14
COc1ccccc1CNC(=O)C(C)Sc1ccsc1[N+](=O)[O-] (centres unmarked)	10.5
O=C(NCc1nc2ccccc2[nH]1)c1cccc(S(=O)(=O)N2CCOCC2)c1	-5.85
O=C(COc1ccc(S(=O)(=O)N2CCCCC2)cc1)NCc1ccccn1	9.02
O=S(=O)(c1ccc(Cl)cc1)N1CCC(n2cccc2)CC1	21.3
Cc1nn(-c2ccccc2)c(N)c1N=Nc1ccccc1	3.08
O=C(Nc1ccc(F)cc1)c1ccccc1NS(=O)(=O)N1CCCC1	-13.9
COc1ccc(-c2nn(-c3ccccc3C)cc2CNCCc2cnc[nH]2)cc1F	-70.6
N#Cc1c(NC(=O)C2CC(Cl)=CCC2C(=O)O)sc2c1CCCC2 (centres unmarked)	8.83
CC12CCC(C(=O)n3c1nc1ccccc13)C2(C)C (centres unmarked)	-3.14
COc1ccc(OC2OC3COC(c4ccco4)OC3C(O)C2NC(C)=O)cc1 (centres unmarked)	3.13
CSc1nc(SC)c2c3c(oc2n1)COC(C)(C)C3	7.86
O=C(O)CCC(=O)N1CCC(n2nnc3cc(C(F)(F)F)ccc32)CC1	10.5
COc1ccc2sc(NC(C)=O)nc2c1	3.39
COC(=O)c1cc(C(=O)c2cc(Br)ccc2O)coc1=N	30
Cl.O=C(CCc1ccccc1)OCCN1CCOCC1	11.8
CCN1C(=C(C#N)C#N)C=Cc2ccccc21	15.8
O=C(OCC(=O)N1CCc2ccccc21)c1ccncc1	-6.97
O=C(O)CC1(CC(=O)Nc2ccc3c(c2)OCCCO3)CCCCC1	2.87
O=C(Oc1cccc(C(=S)N2CCOCC2)c1)c1cccc(Cl)c1	16.1
COc1ccc(CCN(C)C2CC(=O)N(c3ccccc3)C2=O)cc1OC (centres unmarked)	-5.77
